T1: RBFOX1 RRM (Homo sapiens, UniProt Q9NWB1 109-208)
T1 sequence: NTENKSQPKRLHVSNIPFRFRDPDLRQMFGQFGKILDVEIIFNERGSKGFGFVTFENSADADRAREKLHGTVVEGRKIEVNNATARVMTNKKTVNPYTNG

B1: CGGGAAC (DNA:RNA)
RNA: GGGAGACCGGAAUUCAGAUUGUCCCGGGAACUUAAAUCCCGUCGUAGCCACCA
DNA 1: CAATCTGAATTCCGGTCTCCC
DNA 2: TGGTGGCTACGACGGGATT
B2: GAGAGGG (DNA:RNA)
RNA: B1 RNA with C25G, G26A, G28A, A29G, A30G, C31G
DNA 1: CAATCTGAATTCCGGTCTCCC
DNA 2: TGGTGGCTACGACGGGATT
B3: UACGCUC (DNA:RNA)
RNA: B1 RNA with C25U, G26A, G27C, A29C, A30U
DNA 1: CAATCTGAATTCCGGTCTCCC
DNA 2: TGGTGGCTACGACGGGATT
B4: ACAUUCC (DNA:RNA)
RNA: B1 RNA with C25A, G26C, G27A, G28U, A29U, A30C
DNA 1: CAATCTGAATTCCGGTCTCCC
DNA 2: TGGTGGCTACGACGGGATT
B5: ACUGCUA (DNA:RNA)
RNA: B1 RNA with C25A, G26C, G27U, A29C, A30U, C31A
DNA 1: CAATCTGAATTCCGGTCTCCC
DNA 2: TGGTGGCTACGACGGGATT
B6: CUUAGUA (DNA:RNA)
RNA: B1 RNA with G26U, G27U, G28A, A29G, A30U, C31A
DNA 1: CAATCTGAATTCCGGTCTCCC
DNA 2: TGGTGGCTACGACGGGATT
B7: GACGCCG (DNA:RNA)
RNA: B1 RNA with C25G, G26A, G27C, A29C, A30C, C31G
DNA 1: CAATCTGAATTCCGGTCTCCC
DNA 2: TGGTGGCTACGACGGGATT
B8: AUCUUAG (DNA:RNA)
RNA: B1 RNA with C25A, G26U, G27C, G28U, A29U, C31G
DNA 1: CAATCTGAATTCCGGTCTCCC
DNA 2: TGGTGGCTACGACGGGATT
B9: CAUCCGU (DNA:RNA)
RNA: B1 RNA with G26A, G27U, G28C, A29C, A30G, C31U
DNA 1: CAATCTGAATTCCGGTCTCCC
DNA 2: TGGTGGCTACGACGGGATT
B10: AGUGUCU (DNA:RNA)
RNA: B1 RNA with C25A, G27U, A29U, A30C, C31U
DNA 1: CAATCTGAATTCCGGTCTCCC
DNA 2: TGGTGGCTACGACGGGATT
B11: AUUCGCU (DNA:RNA)
RNA: GGGAGACCGGAAUUCAGAUUGUCCAUUCGCUUUAAAUCCCGUCGUAGCCACCA
DNA 1: CAATCTGAATTCCGGTCTCCC
DNA 2: TGGTGGCTACGACGGGATT
B12: CUCAACG (DNA:RNA)
RNA: B11 RNA with A25C, U27C, C28A, G29A, U31G
DNA 1: CAATCTGAATTCCGGTCTCCC
DNA 2: TGGTGGCTACGACGGGATT
B13: CUUCGGG (DNA:RNA)
RNA: B11 RNA with A25C, C30G, U31G
DNA 1: CAATCTGAATTCCGGTCTCCC
DNA 2: TGGTGGCTACGACGGGATT
B14: GUUAGCA (DNA:RNA)
RNA: B11 RNA with A25G, C28A, U31A
DNA 1: CAATCTGAATTCCGGTCTCCC
DNA 2: TGGTGGCTACGACGGGATT
B15: GAAGUGA (DNA:RNA)
RNA: B1 RNA with C25G, G26A, G27A, A29U, A30G, C31A
DNA 1: CAATCTGAATTCCGGTCTCCC
DNA 2: TGGTGGCTACGACGGGATT
B16: CUCUUUG (DNA:RNA)
RNA: B11 RNA with A25C, U27C, C28U, G29U, C30U, U31G
DNA 1: CAATCTGAATTCCGGTCTCCC
DNA 2: TGGTGGCTACGACGGGATT
B17: GGCGGAU (DNA:RNA)
RNA: B1 RNA with C25G, G27C, A29G, C31U
DNA 1: CAATCTGAATTCCGGTCTCCC
DNA 2: TGGTGGCTACGACGGGATT
B18: GUCCCCG (DNA:RNA)
RNA: B11 RNA with A25G, U27C, G29C, U31G
DNA 1: CAATCTGAATTCCGGTCTCCC
DNA 2: TGGTGGCTACGACGGGATT
B19: CUUAGGA (DNA:RNA)
RNA: B11 RNA with A25C, C28A, C30G, U31A
DNA 1: CAATCTGAATTCCGGTCTCCC
DNA 2: TGGTGGCTACGACGGGATT
B20: GUCCCAU (DNA:RNA)
RNA: B11 RNA with A25G, U27C, G29C, C30A
DNA 1: CAATCTGAATTCCGGTCTCCC
DNA 2: TGGTGGCTACGACGGGATT
B21: CUUAAAA (DNA:RNA)
RNA: B1 RNA with G26U, G27U, G28A, C31A
DNA 1: CAATCTGAATTCCGGTCTCCC
DNA 2: TGGTGGCTACGACGGGATT
B22: CUAGUAU (DNA:RNA)
RNA: B1 RNA with G26U, G27A, A29U, C31U
DNA 1: CAATCTGAATTCCGGTCTCCC
DNA 2: TGGTGGCTACGACGGGATT
B23: CAGUUGG (DNA:RNA)
RNA: B1 RNA with G26A, G28U, A29U, A30G, C31G
DNA 1: CAATCTGAATTCCGGTCTCCC
DNA 2: TGGTGGCTACGACGGGATT
B24: ACUUUCA (DNA:RNA)
RNA: B11 RNA with U26C, C28U, G29U, U31A
DNA 1: CAATCTGAATTCCGGTCTCCC
DNA 2: TGGTGGCTACGACGGGATT
B25: AGUAAUA (DNA:RNA)
RNA: B11 RNA with U26G, C28A, G29A, C30U, U31A
DNA 1: CAATCTGAATTCCGGTCTCCC
DNA 2: TGGTGGCTACGACGGGATT
B26: UGCCAGA (DNA:RNA)
RNA: B1 RNA with C25U, G27C, G28C, A30G, C31A
DNA 1: CAATCTGAATTCCGGTCTCCC
DNA 2: TGGTGGCTACGACGGGATT
B27: AGCAACU (DNA:RNA)
RNA: B11 RNA with U26G, U27C, C28A, G29A
DNA 1: CAATCTGAATTCCGGTCTCCC
DNA 2: TGGTGGCTACGACGGGATT
B28: ACACAUC (DNA:RNA)
RNA: B11 RNA with U26C, U27A, G29A, C30U, U31C
DNA 1: CAATCTGAATTCCGGTCTCCC
DNA 2: TGGTGGCTACGACGGGATT
B29: GUUCAUC (DNA:RNA)
RNA: B11 RNA with A25G, G29A, C30U, U31C
DNA 1: CAATCTGAATTCCGGTCTCCC
DNA 2: TGGTGGCTACGACGGGATT
B30: GAACCAU (DNA:RNA)
RNA: B11 RNA with A25G, U26A, U27A, G29C, C30A
DNA 1: CAATCTGAATTCCGGTCTCCC
DNA 2: TGGTGGCTACGACGGGATT
B31: GCACGUC (DNA:RNA)
RNA: B11 RNA with A25G, U26C, U27A, C30U, U31C
DNA 1: CAATCTGAATTCCGGTCTCCC
DNA 2: TGGTGGCTACGACGGGATT

Positions count from the first letter of the chain named. The list shows a part of the results.

The assay has as its target T1, RBFOX1 RRM. As to the kind of experiment: EMSA; HiTS-Eq, 1 nM pool, 10 min; buffer printed only for the single-RNA assays: 10 mM Tris pH 7.5, 150 mM NaCl, 3.4 mM EDTA, 0.001% NP-40, 30 C. As to conditions: tags: His6 N-terminal (pET28a); label: 5' 32P. In a few lines: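 Relative association constants, normalised to the cognate motif, were derived by comparing read counts of each RNA species with those of the control reaction. The RNA sequenced was the free fraction, separated by 8% native PAGE after a 10 min equilibration in 50 µL of 1 nM 5′-radiolabelled RNA (7 randomized nucleotides) with increasing concentrations of purified wild-type or mutant RbFox RRM.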
Consider B1, for which the binding signal is 0.0268 KA relative to UGCAUGU. Consider B2, for which the binding signal is 0.00714 KA relative to UGCAUGU.

B3: the binding signal was 0.00924 KA relative to UGCAUGU. With B4, the binding signal is 0.000104 KA relative to UGCAUGU. Turning to B5, the binding signal is 0.00579 KA relative to UGCAUGU.

With B6, the binding signal was 0.00453 KA relative to UGCAUGU. As for B7, the binding signal is 0.0154 KA relative to UGCAUGU.

As to B8, the binding signal is 0.00706 KA relative to UGCAUGU. Take B9: the binding signal was 0.000684 KA relative to UGCAUGU.

B10: the binding signal was 0.0109 KA relative to UGCAUGU. With B11, the binding signal is 0.00789 KA relative to UGCAUGU. Turning to B12, the binding signal is 0.00406 KA relative to UGCAUGU. B13: the binding signal was 0.00512 KA relative to UGCAUGU. Turning to B14, the binding signal was 0.0176 KA relative to UGCAUGU. As for B15, the binding signal is 0.0136 KA relative to UGCAUGU. For B16, the binding signal was 0.0134 KA relative to UGCAUGU. For the molecule B17, the binding signal was 0.0181 KA relative to UGCAUGU.

Regarding B18, the binding signal was 0.00848 KA relative to UGCAUGU. The result for B19 reads 0.00453 KA relative to UGCAUGU. Take B20: the binding signal was 0.00286 KA relative to UGCAUGU. On to B21, for which the binding signal is 0.00143 KA relative to UGCAUGU.

Consider B22, for which the binding signal was 0.00471 KA relative to UGCAUGU. B23: the binding signal was 0.0125 KA relative to UGCAUGU. As for B24, the binding signal was 0.00407 KA relative to UGCAUGU. On to B25, for which the binding signal is 0.0038 KA relative to UGCAUGU.

On to B26, for which the binding signal was 0.0215 KA relative to UGCAUGU. B27: the binding signal was 0.00504 KA relative to UGCAUGU. Turning to B28, the binding signal is 9.49e-05 KA relative to UGCAUGU. Take B29: the binding signal is 0.00875 KA relative to UGCAUGU.

Regarding B30, the binding signal is 0.00272 KA relative to UGCAUGU. Regarding B31, the binding signal is 0.0416 KA relative to UGCAUGU.

Values taken from publication PMC9911399, “Two distinct binding modes provide the RNA-binding protein RbFox with extraordinary sequence specificity”.
